Test results from PubChem BioAssay AID894 (National Center for Advancing Translational Sciences (NCATS), 2007).
The campaign covered roughly 150,000 compounds. About 6,500 (4.3%) were called active. Inconclusive results, whose numbers are uncertain, are shown with a selection of clear calls. Calls come from the whole dose curve; as a rule, active = well fitted inhibition curve with a large enough effect (not every such curve was filed as active); inconclusive = small, poorly fitted or top-dose-only effect, or another doubt; inactive = no such curve, though single readings can be large or run the other way. No potency is given beside an inconclusive call; the fits are too rough.

molecular target: 15-hydroxyprostaglandin dehydrogenase [NAD(+)] (Homo sapiens) (UniProt P15428); assay: qHTS Assay for Inhibitors of HPGD (15-Hydroxyprostaglandin Dehydrogenase); details: purified HPGD, NADH fluorescence kinetic, PGE2 substrate; activity change, negative = inhibition: hits give low values
UniProt P15428, sequence (P15428 whole entry, looked up): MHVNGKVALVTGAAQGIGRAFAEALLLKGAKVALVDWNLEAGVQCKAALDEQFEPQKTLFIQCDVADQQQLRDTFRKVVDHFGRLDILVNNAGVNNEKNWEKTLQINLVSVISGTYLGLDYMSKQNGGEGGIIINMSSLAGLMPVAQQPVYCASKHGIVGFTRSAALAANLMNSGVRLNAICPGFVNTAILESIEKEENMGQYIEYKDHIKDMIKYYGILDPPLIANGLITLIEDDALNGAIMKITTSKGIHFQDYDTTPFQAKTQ
Method in brief: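 20 nM HPGD preincubated 15 min at room temperature with compound in 50 mM Tris-HCl pH 8, 0.01% Tween 20. Started with 1 mM NAD+ and 30 uM prostaglandin E2; NADH fluorescence (360/450 nm) read 5 times over 30-s intervals, last minus first.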
% is set by controls: 0 for no effect and ±100 for the full control effect; potency is the fitted concentration of half-maximal effect; tags give direction and shape of the fitted curve.

| Compound | Potency | activity change, negative = inhibition |
| --- | --- | --- |
| CCOC(=O)Cc1cc(=O)n2[nH]c(C)c(-c3ccc(Cl)cc3)c2n1 | inconclusive [inhibitor, partial curve] | – |
| Cc1ccc(/C=C/C(=O)NC2CCCCCCC2)o1 | active: 3.55 µM | – |
| COc1ccc(Cl)cc1CSc1n[nH]c(C)n1 | active: 15.8 µM | – |
| O=C(CCSc1ccc(Cl)cc1)N1CCCCCC1 | active: 10 µM | – |
| O=C(CC(c1ccccc1)c1ccco1)N1CCOCC1 (stereo not drawn) | active: 17.8 µM | – |
| Cc1cc(NC(=O)CSc2nc3c(cc2C#N)CCCC3)no1 | inconclusive [inhibitor, single point] | – |
| CC(C)CSc1nc(N2CCOCC2)c2c(c1C#N)CC(C)(C)SC2 | inconclusive [inhibitor, single point] | – |
| CC(=O)Nc1c(O)nc(SCC(=O)N2CCN(c3ccc(F)cc3)CC2)[nH]c1=O | – | inactive: 3.42% |
| CSc1nc(N)nc(SCC(=O)CC(=O)OC(C)C)c1C#N | – | inactive: -19.2% |
| COc1ccc(-c2nnc(Nc3nc4c(OC)cccc4s3)o2)c(OC)c1 | inconclusive [inhibitor, partial curve] | – |
| COc1ccc(Cl)cc1-n1c(C)cc(C(=O)O)c1C | active: 12.6 µM | – |
| COc1ccc(OC)c(C2CC(=O)N3CN(c4ccccc4)CSC3=C2C#N)c1 (stereo not drawn) | active: 7.08 µM | – |
| O=C1C(=O)N(Cc2cccc([N+](=O)[O-])c2)c2ccccc21 | inconclusive [inhibitor, partial curve] | – |
| CCOC(=O)c1c(C)c(C(=O)NCCCOC)c(C)n1C | inconclusive [inhibitor, partial curve] | – |
| COCCNC(=O)C(c1cccs1)N(C(=O)Cn1nnc2ccccc21)c1ccc(OC)cc1 (stereo not drawn) | – | inactive: -9.57% |
| N#Cc1c(N)n(CCNC(=O)c2cccs2)c2nc3ccccc3nc12 | inconclusive [inhibitor, partial curve] | – |
| COC(=O)c1c(C(=O)OC)c2cc(C(=O)c3ccccc3)ccn2c1Cl | inconclusive [inhibitor, partial curve] | – |
| CCOC(=O)O[C@]1(C(=O)COC(=O)CC)CC[C@@H]2[C@@H]3CCC4=CC(=O)C=C[C@@]4(C)[C@H]3[C@H](O)C[C@]21C | – | inactive: -6.24% |
| COc1ccc(NC(=O)CC2Sc3ncnn3C2=O)cc1 (stereo not drawn) | active: 7.94 µM | – |
| Cc1cc(C)c2c(CC(=O)NCc3ccco3)coc2c1 | inconclusive [inhibitor, full curve, poor fit] | – |
| Cc1ccc(SCC2CNc3nc4ccccc4c(=O)n32)c(C)c1 (stereo not drawn) | – | inactive: -5.2% |
| N=c1n(CCO)c2ccccc2n1CCOc1ccccc1 | – | inactive: -4.06% |
| O=S(=O)(c1ccc(-c2nc3ccccc3s2)cc1)N1CCCC1 | inconclusive [inhibitor, single point] | – |
| CCCOC(=O)C1=C(C)NC2=C(C(=O)CC(C)(C)C2)C1c1cccnc1 (stereo not drawn) | inconclusive [inhibitor, partial curve] | – |
| CN1CCc2c(sc3nc(SCC(N)=O)n(-c4ccccc4)c(=O)c23)C1 | inconclusive [inhibitor, partial curve] | – |

| Compound | Potency | activity change, negative = inhibition |
| --- | --- | --- |
| COc1cccc(/C=N/Nc2nn3cnnc3c3ccccc23)c1 | inconclusive [inhibitor, partial curve] | – |
| CCCCCCc1cc2cc(-c3nnc(-c4ccccc4)o3)c(=O)oc2cc1O | inconclusive [inhibitor, full curve] | – |
| CCOC(=O)/C(C#N)=C/c1ccc(N2CCN(Cc3ccccc3)CC2)cc1 | inconclusive [inhibitor, single point] | – |
| O=C(Cn1nc(-c2ccc(F)cc2)ccc1=O)Nc1ccc(C(=O)NC2CC2)cc1 | active: 28.2 µM | – |
| CSc1ccc(/C=N/NC(=O)c2ccc(O)cc2)cc1 | inconclusive [inhibitor, partial curve] | – |
| CN1CCN(CCCNC(=O)c2cn(C3CCCCC3)c(=O)c3c2c2ccccc2n3C)CC1 | inconclusive [inhibitor, partial curve] | – |
| COc1ccc2cc3c(N)c(C(=O)N4CCCC4)sc3nc2c1 | inconclusive [inhibitor, partial curve] | – |
| COCCN1CC(O)=C(c2nc3ccccc3c(=O)[nH]2)C1=N | inconclusive [inhibitor, partial curve] | – |
| COCCCNS(=O)(=O)c1ccc(Oc2ncc(C(F)(F)F)cc2Cl)cc1 | inconclusive [inhibitor, partial curve, poor fit] | – |
| CCOc1ccc2nc(SCC(=O)c3ccc(Cl)s3)sc2c1 | inconclusive [inhibitor, single point] | – |
| Cn1c(=O)[nH]c(=O)c2c1nc(Br)n2CCSc1nnnn1-c1ccccc1 | – | inactive: -7.33% |
| O=C1C=C(Nc2ccc(Cl)cc2)CC(c2ccc(Cl)cc2)C1 (stereo not drawn) | active: 31.6 µM | – |
| C#CCN(C)CCCOc1ccc(Cl)cc1Cl | active: 14.1 µM | – |
| CC(=O)c1c(C)[nH]c(C(=O)OCC(=O)N2c3ccccc3NC(=O)C2(C)C)c1C | – | inactive: 0.934% |
| CC1=CCC(C(=O)N/N=C/c2cccs2)C(c2ccc(F)cc2)C1 (stereo not drawn) | inconclusive [inhibitor, partial curve] | – |
| CCOC(=O)c1ccc(N2C(=O)CC(Sc3nnc(C)s3)C2=O)cc1 (stereo not drawn) | active: 28.2 µM | – |
| COc1cccc2c3c(c(=O)[nH]c12)CCC(C)(C)O3 | active: 15.8 µM | – |
| CC(C)c1ccc(-c2nc(N3CCOCC3)[nH]c(=O)c2C#N)cc1 | inconclusive [inhibitor, single point] | – |
| O=C(N/N=C/c1ccc[nH]1)c1ccc([N+](=O)[O-])cc1 | – | inactive: -3.66% |
| COc1ccc(-c2cc3ccc(OCc4nn[nH]n4)cc3oc2=O)cc1OC | inconclusive [inhibitor, partial curve] | – |
| CC(C)OC(=O)CC(=O)CSc1nc2c(cc1C#N)CCCCCC2 | inconclusive [inhibitor, partial curve] | – |
| O=C(Nc1nc(-c2ccncc2)cs1)C1COc2ccccc2O1 (stereo not drawn) | active: 7.94 µM | – |
| CCS(=O)(=O)Nc1ccc(C(=O)CC2(O)C(=O)Nc3ccccc32)cc1 (stereo not drawn) | inconclusive [inhibitor, partial curve] | – |
| O=C(Nc1cccc(C(F)(F)F)c1)c1ccc2nc(-c3ccco3)c(-c3ccco3)nc2c1 | inconclusive [inhibitor, partial curve] | – |
| COc1ccc(-c2ccc(-c3nc4c(c(=O)[nH]c(=O)n4Cc4ccccc4)n3C)o2)c([N+](=O)[O-])c1 | active: 28.2 µM | – |

| Compound | Potency | activity change, negative = inhibition |
| --- | --- | --- |
| COc1ccccc1CNC(=O)CSc1nc(N)c(C#N)c(-c2cccs2)c1C#N | inconclusive [inhibitor, partial curve] | – |
| O=C(c1ccc2c(c1)OCO2)n1nnc2ccccc21 | inconclusive [inhibitor, partial curve] | – |
| COc1ccc2c(c1)c(=O)oc1cc(OCC(=O)NC3CCCCC3)ccc12 | inconclusive [inhibitor, partial curve] | – |
| CCCCC(=O)NCc1ccc(Cl)cc1 | active: 14.1 µM | – |
| CCCOc1c(Cl)cc(/C=N/O)cc1OCC | active: 25.1 µM | – |
| Cc1nc2cc3ccccc3cc2c(=O)[nH]1 | inconclusive [inhibitor, partial curve] | – |
| CCn1nc(C(=O)Nc2ccc(S(=O)(=O)Nc3nccs3)cc2)c2ccccc2c1=O | – | inactive: -21.3% |
| O=C(COc1ncnc2ccccc12)NCc1ccc2c(c1)OCO2 | inconclusive [inhibitor, partial curve] | – |
| C/C(=N\NC(=O)COc1ccc(C(C)(C)C)cc1)c1ccc(N2CCOCC2)cc1 | inconclusive [inhibitor, partial curve] | – |
| O=C(c1ccccc1)c1nn(-c2ccccc2)c(=O)cc1C(F)(F)F | inconclusive [inhibitor, single point] | – |
| COC(C)(C)CCCC(C)C/C=C/C(C)=C/C(=O)O (stereo not drawn) | – | inactive: -2.12% |
| COc1ccccc1CNC(=O)COC(=O)c1cc(-c2ccco2)nc2ccccc12 | inconclusive [inhibitor, partial curve] | – |
| O=C(c1cc(-c2ccco2)on1)N1CCc2ccccc2C1 | active: 11.2 µM | – |
| CCCC1(C(=O)OC)C=C2C(=C(C)C(=O)C2C)CN1 (stereo not drawn) | inconclusive [inhibitor, partial curve] | – |
| CCOC(=O)c1c(-c2ccc(F)cc2)cn2ccccc12 | inconclusive [inhibitor, partial curve] | – |
| CC1(C)C(=O)OC(c2cccn2-c2ccc([N+](=O)[O-])cc2)C(C)(C)C1=O (stereo not drawn) | – | inactive: -6.49% |
| Cc1ccc(-c2cc(C(=O)N3N=C(C(F)F)CC3(O)C(F)F)c3ccccc3n2)cc1C (stereo not drawn) | inconclusive [inhibitor, partial curve] | – |
| S=C(N/N=C/c1ccccc1)N1CCOCC1 | – | inactive: -9.36% |
| CCc1ccc2oc(C(=O)NCc3ccncc3)c(C)c2c1 | inconclusive [inhibitor, partial curve] | – |
| CC(C)COC(=S)Nc1ccccc1 | active: 11.2 µM | – |
| N#CC1=C2SCN(c3ccccc3)CN2C(=O)CC1c1ccccc1Cl (stereo not drawn) | active: 7.94 µM | – |
| C/C(=C\c1ccccc1)C(=O)N1CCN(c2cccc(C(F)(F)F)c2)CC1 | active: 25.1 µM | – |
| O=C(/C=C/c1ccco1)Nc1ccc(C(=O)N2CCOCC2)cc1 | active: 17.8 µM | – |
